We go through 25 molecules from the supplement of paper PMC4604168 (melanoma cell lines).

Some of the results follow. Single values are uncertain, as repeats are few or missing.
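Note: cells treated in 1,536-well plates, then fixed and DAPI-stained, with nuclei counted from automated high-throughput microscope images.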

The subject of this test is A375. As to the kind of experiment: cell count relative to DMSO control; melanoma cells; higher = more viable cells. The following applies: library dose: standard library concentration; 72 h.
`N#CC[C@H](C1CCCC1)n1cc(-c2ncnc3[nH]ccc23)cn1` [ruxolitinib] + COc1ccc(Cl)c(Nc2nc3ccccc3nc2NS(=O)(=O)c2cccc(NC(=O)C(C)(C)N)c2)c1 [XL147] (first compound 5 µM, partner dose 4 µM) had a cell count of 109%.

The molecule `N#CC[C@H](C1CCCC1)n1cc(-c2ncnc3[nH]ccc23)cn1` [ruxolitinib] + O=C(O)c1ccc(-c2c[nH]c3ncc(-c4ccccc4)cc23)cc1C1CCCC1 [GSK650394] (first compound 5 µM, partner dose 0.8 µM) returned a cell count of 98.3%.

Take `Cc1cc(Nc2cc(N3CCN(C)CC3)nc(Sc3ccc(NC(=O)C4CC4)cc3)n2)n[nH]1` [Tozasertib] + NCC(=O)Nc1ccc(-n2nc(C(F)(F)F)cc2-c2ccc3c(ccc4ccccc43)c2)cc1 [OSU03012] (first compound 0.03 µM, partner dose 5 µM): the cell count is 54.8%.

In turn, `Cc1cc(Nc2cc(N3CCN(C)CC3)nc(Sc3ccc(NC(=O)C4CC4)cc3)n2)n[nH]1` [Tozasertib] + CCN(CC)CCNC(=O)c1c(C)[nH]c(/C=C2\C(=O)Nc3ccc(F)cc32)c1C [sunitinib] (first compound 0.03 µM, partner dose 2 µM) had a cell count of 91.4%.

Regarding `N#CC[C@H](C1CCCC1)n1cc(-c2ncnc3[nH]ccc23)cn1` [ruxolitinib] + CCCCCCCCc1ccc(CCC(N)(CO)CO)cc1 [fingolimod] (first compound 5 µM, partner dose 10 µM), the cell count came to 51.5%.

In turn, `N#CC[C@H](C1CCCC1)n1cc(-c2ncnc3[nH]ccc23)cn1` [ruxolitinib] + CC(=O)c1c(C)c2cnc(Nc3ccc(N4CCNCC4)cn3)nc2n(C2CCCC2)c1=O [palbociclib] (first compound 5 µM, partner dose 0.2 µM) registered a cell count of 97.1%.

`N#CC[C@H](C1CCCC1)n1cc(-c2ncnc3[nH]ccc23)cn1` [ruxolitinib] + CC[C@]1(O)C[C@H]2CN(CCc3c([nH]c4ccccc34)[C@@](C(=O)OC)(c3cc4c(cc3OC)N(C=O)[C@H]3[C@@](O)(C(=O)OC)[C@H](OC(C)=O)[C@]5(CC)C=CCN6CC[C@]43[C@@H]65)C2)C1 [vincristine] (first compound 5 µM, partner dose 0.0005 µM) gave a cell count of 122%.

For `Cc1cc(Nc2cc(N3CCN(C)CC3)nc(Sc3ccc(NC(=O)C4CC4)cc3)n2)n[nH]1` [Tozasertib] + CN1CCN(c2ccc3nc(-c4c(N)c5c(F)cccc5[nH]c4=O)[nH]c3c2)CC1 [Dovitinib] (first compound 0.03 µM, partner dose 0.5 µM), the cell count is 74.1%.

Turning to `N#CC[C@H](C1CCCC1)n1cc(-c2ncnc3[nH]ccc23)cn1` [ruxolitinib] + O=c1[nH]nc(Sc2ncc([N+](=O)[O-])s2)n1-c1ccc2c(c1)OCCO2 [BI78D3] (first compound 5 µM, partner dose 1 µM), the cell count amounted to 114%.

For `CC[C@]1(O)C[C@H]2CN(CCc3c([nH]c4ccccc34)[C@@](C(=O)OC)(c3cc4c(cc3OC)N(C=O)[C@H]3[C@@](O)(C(=O)OC)[C@H](OC(C)=O)[C@]5(CC)C=CCN6CC[C@]43[C@@H]65)C2)C1` [vincristine] + CC(=O)c1c(C)c2cnc(Nc3ccc(N4CCNCC4)cn3)nc2n(C2CCCC2)c1=O [palbociclib] (first compound 0.0005 µM, partner dose 0.2 µM), the cell count worked out at 57.3%.

Regarding `Cc1cc(Nc2cc(N3CCN(C)CC3)nc(Sc3ccc(NC(=O)C4CC4)cc3)n2)n[nH]1` [Tozasertib] + CO[C@H]1C[C@@H]2CC[C@@H](C)[C@@](O)(O2)C(=O)C(=O)N2CCCC[C@H]2C(=O)O[C@H]([C@H](C)C[C@@H]2CC[C@@H](OCCO)[C@H](OC)C2)CC(=O)[C@H](C)/C=C(\C)[C@@H](O)[C@@H](OC)C(=O)[C@H](C)C[C@H](C)/C=C/C=C/C=C/1C [everolimus] (first compound 0.03 µM, partner dose 0.1 µM), the cell count stood at 82.8%.

Consider `Cc1cc(Nc2cc(N3CCN(C)CC3)nc(Sc3ccc(NC(=O)C4CC4)cc3)n2)n[nH]1` [Tozasertib] + COc1cc(Nc2ncc(F)c(Nc3ccc4c(n3)NC(=O)C(C)(C)O4)n2)cc(OC)c1OC [Tamatinib] (first compound 0.03 µM, partner dose 2 µM), for which the cell count was 76.8%.

With `Cc1cc(Nc2cc(N3CCN(C)CC3)nc(Sc3ccc(NC(=O)C4CC4)cc3)n2)n[nH]1` [Tozasertib] + CCCCCCCCCCCCCCCCCCOP(=O)([O-])OC1CC[N+](C)(C)CC1 [Perifosine] (first compound 0.03 µM, partner dose 2 µM), the cell count is 73.8%.

Consider `CC[C@]1(O)C[C@H]2CN(CCc3c([nH]c4ccccc34)[C@@](C(=O)OC)(c3cc4c(cc3OC)N(C=O)[C@H]3[C@@](O)(C(=O)OC)[C@H](OC(C)=O)[C@]5(CC)C=CCN6CC[C@]43[C@@H]65)C2)C1` [vincristine] + O=C(/C=C/c1cccnc1)NCCCCC1CCN(C(=O)c2ccccc2)CC1 [FK866] (first compound 0.0005 µM, partner dose 0.05 µM), for which the cell count amounted to 101%.

`N#CC[C@H](C1CCCC1)n1cc(-c2ncnc3[nH]ccc23)cn1` [ruxolitinib] + Cn1nnc2c(C(N)=O)ncn2c1=O [temozolomide] (first compound 5 µM, partner dose 10 µM): the cell count was found to be 128%.

For `CC[C@]1(O)C[C@H]2CN(CCc3c([nH]c4ccccc34)[C@@](C(=O)OC)(c3cc4c(cc3OC)N(C=O)[C@H]3[C@@](O)(C(=O)OC)[C@H](OC(C)=O)[C@]5(CC)C=CCN6CC[C@]43[C@@H]65)C2)C1` [vincristine] + Cn1cncc1[C@@](N)(c1ccc(Cl)cc1)c1ccc2c(c1)c(-c1cccc(Cl)c1)cc(=O)n2C [tipifarnib] (first compound 0.0005 µM, partner dose 0.05 µM), the cell count was determined as 77%.

Take `N#CC[C@H](C1CCCC1)n1cc(-c2ncnc3[nH]ccc23)cn1` [ruxolitinib] + NC1(c2ccc(-c3nc4ccn5c(=O)[nH]nc5c4cc3-c3ccccc3)cc2)CCC1 [MK2206] (first compound 5 µM, partner dose 2 µM): the cell count stood at 130%.

`CC[C@]1(O)C[C@H]2CN(CCc3c([nH]c4ccccc34)[C@@](C(=O)OC)(c3cc4c(cc3OC)N(C=O)[C@H]3[C@@](O)(C(=O)OC)[C@H](OC(C)=O)[C@]5(CC)C=CCN6CC[C@]43[C@@H]65)C2)C1` [vincristine] + C[C@@H](N)c1ccc(C(=O)Nc2ccnc3[nH]ccc23)cc1 [RKI983] (first compound 0.0005 µM, partner dose 2 µM) returned a cell count of 90.4%.

The molecule `N#CC[C@H](C1CCCC1)n1cc(-c2ncnc3[nH]ccc23)cn1` [ruxolitinib] + O=C(/C=C/c1cccnc1)NCCCCC1CCN(C(=O)c2ccccc2)CC1 [FK866] (first compound 5 µM, partner dose 0.05 µM) yielded a cell count of 151%.

As to `Cc1cc(Nc2cc(N3CCN(C)CC3)nc(Sc3ccc(NC(=O)C4CC4)cc3)n2)n[nH]1` [Tozasertib] + Clc1ccc(Nc2nnc(Cc3ccncc3)c3ccccc23)cc1 [vatalanib] (first compound 0.03 µM, partner dose 10 µM), the cell count stood at 79.7%.

Consider `CC[C@]1(O)C[C@H]2CN(CCc3c([nH]c4ccccc34)[C@@](C(=O)OC)(c3cc4c(cc3OC)N(C=O)[C@H]3[C@@](O)(C(=O)OC)[C@H](OC(C)=O)[C@]5(CC)C=CCN6CC[C@]43[C@@H]65)C2)C1` [vincristine] + O=C1NC(=O)/C(=C/c2ccc(-c3ccc(F)cc3O)o2)S1 [AS252424] (first compound 0.0005 µM, partner dose 5 µM), for which the cell count amounted to 125%.

On to `CC[C@]1(O)C[C@H]2CN(CCc3c([nH]c4ccccc34)[C@@](C(=O)OC)(c3cc4c(cc3OC)N(C=O)[C@H]3[C@@](O)(C(=O)OC)[C@H](OC(C)=O)[C@]5(CC)C=CCN6CC[C@]43[C@@H]65)C2)C1` [vincristine] + Nc1nc(F)nc2c1ncn2[C@@H]1O[C@H](CO)[C@@H](O)[C@@H]1O [fludarabine] (first compound 0.0005 µM, partner dose 1 µM), for which the cell count stood at 25.3%.

Consider `Cc1cc(Nc2cc(N3CCN(C)CC3)nc(Sc3ccc(NC(=O)C4CC4)cc3)n2)n[nH]1` [Tozasertib] + CC[C@]1(O)C[C@H]2CN(CCc3c([nH]c4ccccc34)[C@@](C(=O)OC)(c3cc4c(cc3OC)N(C=O)[C@H]3[C@@](O)(C(=O)OC)[C@H](OC(C)=O)[C@]5(CC)C=CCN6CC[C@]43[C@@H]65)C2)C1 [vincristine] (first compound 0.03 µM, partner dose 0.0005 µM), for which the cell count stood at 101%.

In turn, `N#CC[C@H](C1CCCC1)n1cc(-c2ncnc3[nH]ccc23)cn1` [ruxolitinib] + CS(=O)(=O)CCNCc1ccc(-c2ccc3ncnc(Nc4ccc(OCc5cccc(F)c5)c(Cl)c4)c3c2)o1 [lapatinib] (first compound 5 µM, partner dose 4 µM) gave a cell count of 172%.

The molecule `CC[C@]1(O)C[C@H]2CN(CCc3c([nH]c4ccccc34)[C@@](C(=O)OC)(c3cc4c(cc3OC)N(C=O)[C@H]3[C@@](O)(C(=O)OC)[C@H](OC(C)=O)[C@]5(CC)C=CCN6CC[C@]43[C@@H]65)C2)C1` [vincristine] + Cn1c(=O)n(-c2ccc(C(C)(C)C#N)cc2)c2c3cc(-c4cnc5ccccc5c4)ccc3ncc21 [NVP-BEZ235] (first compound 0.0005 µM, partner dose 0.02 µM) returned a cell count of 81.1%.
